Out of some 150,000 compounds screened, about 540 (0.36%) showed an effect of 50% or more. The list shows a part of the results.

This assay has as its system Plasmodium falciparum. The assay can be described thus: Primary screen in NF54 nanoGlo assay, in single point, at 2uM, 72h; a lower Z score goes with more inhibition. It counts as functional, Erythrocyte. The following applies: timepoint 72 hour.
Broadly, the % Inhibition is the drop in the measured response relative to a control, in per cent. As to `CCOc1ccccc1CN(Cc1cc(Cl)c(O)c(OC)c1)C1CC1`, the “% Inhibition” value is listed as -5% and the Z score is listed as 1.
Take `CC(C)Cn1ncc(-c2nc([C@@H]3CCCCCN3)no2)c1C(F)F`: the “% Inhibition” value is -18% and the Z score was found to be 1.67.
Taken in the same sequence, the figures for `Cc1[nH]ncc1C(=O)Nc1ccc(N2CCOC[C@@H]2C)cc1` were -8% and 1.59.
The corresponding values for `C[C@@H]1CN(CC(=O)NCCCc2nccs2)C[C@H](C)O1` are -10% and 1.69.
Take `Cc1nscc1C(=O)Nc1nc(-c2ccc3c(c2)OCCO3)cs1`: the “% Inhibition” value was -6% and the Z score was 0.58.
Turning to `O=C(Nc1nc(-c2c(F)cccc2F)cs1)[C@H]1OCC[C@H]1Cn1ccnc1`, the “% Inhibition” value was -1% and the Z score was found to be 0.2.
The corresponding values for `CCNC(=O)N(Cc1ccco1)Cc1c(-c2ccccc2)nn(C)c1Oc1ccccc1` are 3% and -0.35.
Take `Cc1noc(CNC(=O)N(C)CC2(c3ccccc3)CC2)n1`: the “% Inhibition” value is listed as -9% and the Z score was found to be 1.49.
The corresponding values for `CCCn1c(O)c(C(=O)NCCc2ccc(OC)cc2)c(=O)c2ccccc21` are -5% and 0.59.
In the case of `CN(CCc1nc(-c2ccccc2)no1)Cc1cnn(C)c1`, the “% Inhibition” value was found to be 8% and the Z score was -0.74.
With `Cc1ccc(C(=O)NCC(C)C)cc1N`, the “% Inhibition” value is given as -11% and the Z score came to 1.42.
Taken in the same sequence, the figures for `CCc1csc(CNCc2ccc(F)cc2OC)n1` were -12% and 1.63.
For `CC[C@@H](CO)N(Cc1ccsc1)C(=O)c1cncc(C)c1`, the “% Inhibition” value is -24% and the Z score amounted to 2.36.
Take `Cc1c(C#N)c(N)n(CCC2=CCCCC2)c1C`: the “% Inhibition” value is given as -8% and the Z score is on record as 1.02.
Taken in the same sequence, the figures for `CCC1CCCCC1OCC(=O)Nc1ccncc1` (stereo not given) were -15% and 1.26.
For `O=C(Cc1cn2ccsc2n1)N1CCCCCCC1`, the “% Inhibition” value is listed as -6% and the Z score is recorded as 0.91.
Taken in the same sequence, the figures for `COCc1nsc(N[C@H]2CCN(c3ccc(Cl)c(F)c3)C2)n1` were -3% and 0.5.
`CC1CCN(C(=O)c2ccccc2N2CCC(NC(=O)c3ccccc3)CC2)CC1`: the “% Inhibition” value is -12% and the Z score came out at 1.08.
`CC(C)(C)C(NCc1csc(C2CCCO2)n1)c1ccccc1` (stereo not given): the “% Inhibition” value is recorded as -4% and the Z score is recorded as 0.45.
The corresponding values for `CC(C)n1ncc(C(=O)N2CC3CCCCCC32)c1C(F)(F)F` (stereo not given) are -13% and 2.05.
Take `CC1=NO[C@@](C)(CNC(=O)c2ccccc2F)C1`: the “% Inhibition” value is -4% and the Z score is listed as 0.6.
The corresponding values for `O=C(NC1CC1)C1CCN(c2ccc(-n3cccn3)nn2)CC1` are -2% and 0.3.
The corresponding values for `CCN(Cc1ccccn1)C(=O)C(F)(F)c1ccccn1` are -6% and 0.53.
The corresponding values for `CC[C@H](NCc1nncn1C)c1cc(F)cc(Br)c1` are 0% and -0.02.
On to `O=C(NC1CCN(Cc2ccccc2F)CC1)c1nccnc1NC(=O)C1CCCCC1`, for which the “% Inhibition” value is -7% and the Z score was determined as 0.8.
The corresponding values for `COCCN(C(=O)c1cnc(C(C)(C)C)nc1O)C1CCN(C)CC1` are -5% and 0.59.
With `CC[C@H](C)NC(=O)Cn1ncc2c(N3CCN(c4ccccn4)CC3)ncnc21`, the “% Inhibition” value is recorded as -11% and the Z score stood at 1.27.
The corresponding values for `Cc1cc2ncc(NC(=O)Nc3ccc4c(c3)OCO4)cn2n1` are -9% and 1.16.
In the case of `Cc1cccc(CC2(NC(=O)N3CCC[C@H](C(=O)N4CCCC4)C3)CC2)c1`, the “% Inhibition” value is -10% and the Z score was 1.04.
The corresponding values for `O=C1C[C@@H](C2CCCCC2)c2cnn(Cc3cccs3)c2N1` are -15% and 1.94.
The corresponding values for `c1c(CN2CCCCC2)n[nH]c1C1CCCCC1` are -3% and 0.35.
The corresponding values for `CC(=O)c1c[nH]c(C(=O)Nc2nc(C(C)C)cs2)c1` are -8% and 0.65.
For `CC(C)Oc1cc(CNC(=O)[C@@H](c2ccccc2)N2CCC(O)CC2)ccn1`, the “% Inhibition” value was -7% and the Z score amounted to 1.13.
Turning to `CC(C)(C)n1nnnc1CN1CCC[C@H]1c1nc(-c2ccccc2)n[nH]1`, the “% Inhibition” value is recorded as -2% and the Z score was 0.25.
Taken in the same sequence, the figures for `CCc1cc(CN2CCOc3c(O)cc(-c4nc(C)cnc4C)cc3C2)[nH]n1` were 0% and 0.02.
The corresponding values for `Cc1cccc(CN2CCCN(CCCNC(=O)c3nc(-c4ccncn4)no3)CC2)c1` are 1% and -0.12.
The corresponding values for `CCN(CCC(=O)N(C)Cc1ccccc1)C(=O)c1cc2n(n1)CCCN(Cc1ccccc1C)C2=O` are -5% and 0.55.
On to `COC(=O)[C@@H]1CCc2cnccc2N1C(=O)c1cc(Cl)n(C)n1`, for which the “% Inhibition” value is reported as -6% and the Z score is reported as 1.31.
Taken in the same sequence, the figures for `CC1CCC(NC(=O)c2ccc3c(c2)CCCC3)CC1` (stereo not given) were -17% and 1.94.
On to `Cc1csc([C@@H]2CN(c3ncnc(-c4ccccc4)n3)CCO2)n1`, for which the “% Inhibition” value was -12% and the Z score came to 1.42.
Taken in the same sequence, the figures for `CC(C)[C@H](C)NCc1ccnc(N(C)C)n1` were -7% and 0.84.
Turning to `Cc1cccc(C(=O)N2CC(CN3CCCCC3)C(c3cccc(C(F)(F)F)c3)C2)c1` (stereo not given), the “% Inhibition” value is -2% and the Z score was found to be 0.3.
In the case of `O=C(CNC(=O)[C@H]1CC[C@H](CNS(=O)(=O)c2ccccc2)CC1)N1CCN(c2ccccc2)CC1`, the “% Inhibition” value amounted to 37% and the Z score is -1.24.
The corresponding values for `C[C@H]1C(=O)N(c2ccccc2-c2ccccc2)CCN1C(=O)COc1ccc(Cl)cc1` are -14% and 2.43.
Consider `C=CCn1c(=O)c(CNCCc2ccccn2)cc2cc(C)ccc21`, for which the “% Inhibition” value stood at 18% and the Z score is given as -2.29.
The corresponding values for `CN1CCO[C@@H](CNC(=O)N(Cc2ccoc2)C2CC2)C1` are -4% and 0.71.
With `C=CCn1ncc(-c2nc3c([nH]2)c(-c2cccnc2)nn3C)c1C`, the “% Inhibition” value is reported as -14% and the Z score came out at 2.79.
In the case of `CO[C@@H](C)CS(=O)(=O)Nc1cnn(C)c1C`, the “% Inhibition” value is on record as -9% and the Z score stood at 0.76.
On to `CCc1noc([C@H](C)NC(=O)c2cc(Cl)cn2C)n1`, for which the “% Inhibition” value amounted to 7% and the Z score is -1.35.
Taken in the same sequence, the figures for `O=C(O)C1CCCCC1C(=O)N1CCC(Cc2ccccc2)CC1` (stereo not given) were 0% and 0.
Taken in the same sequence, the figures for `O=C(NCc1ccco1)[C@H]1CCCN(c2nc3ccccc3n(Cc3ccccc3)c2=O)C1` were 45% and -6.52.
`C[C@@H](Cc1c(Cl)cccc1Cl)NC(=O)N1CCNC(=O)CC1`: the “% Inhibition” value was -6% and the Z score was 0.56.
With `C[C@H](NCc1csc(COc2ccc(Cl)cc2)n1)c1ccncc1`, the “% Inhibition” value is recorded as -4% and the Z score is 0.54.
Turning to `CCN(C)c1ccnc(N(C)Cc2cccnc2)n1`, the “% Inhibition” value is -2% and the Z score amounted to 0.25.
For the compound `CCc1[nH]nc(-c2ccc(F)c(F)c2)c1NC(=O)Cc1ccc(OC)cc1`, the “% Inhibition” value is given as -4% and the Z score was 0.46.

The record behind these values is ChEMBL document CHEMBL4888484, “Replenishing the malaria drug discovery pipeline: Screening and hit evaluation of the MMV Hit Generation Library 1 (HGL1) against asexual blood stage Plasmodium falciparum ,using a nano luciferase reporter read-out” (2022).
